The list shows a part of the results.
Key:
Assay in all cases: glycan array binding signal (z-score within array); higher = stronger binding
Conditions in all cases: glycan notation: IUPAC condensed, linker removed
[1] = molecular target: Neu5Ac(a2-3)Gal(b1-4)GlcNAc(b1-3)Gal(b1-4)[Fuc(a1-3)]GlcNAc
Outline: (§1)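 Glycan array binding is given as a within-array Z-score, which can be read as non-binding when negative. The arrays, 3228 of them, came from the Consortium for Functional Glycomics database and were retained only where the protein sequence was available. Z-scores were averaged across arrays of the same protein sequence at different concentrations or buffers and across linkers.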

[2] = molecular target: Neu5Ac(a2-3)Gal(b1-4)GlcNAc(b1-6)[Gal(b1-3)]GalNAc
Outline: as §1

[3] = molecular target: Neu5Ac(a2-3)Gal(b1-4)GlcNAc6S
Outline: as §1

[4] = molecular target: Neu5Ac(a2-3)Gal(b1-4)[Fuc(a1-3)]GlcNAc
Outline: as §1

[5] = molecular target: Neu5Ac(a2-3)Gal(b1-4)[Fuc(a1-3)]GlcNAc(b1-3)Gal
Outline: as §1

[6] = molecular target: Neu5Ac(a2-3)Gal(b1-4)[Fuc(a1-3)]GlcNAc(b1-3)Gal(b1-4)GlcNAc
Outline: as §1

[7] = molecular target: Neu5Ac(a2-3)Gal(b1-4)[Fuc(a1-3)]GlcNAc(b1-3)Gal(b1-4)[Fuc(a1-3)]GlcNAc(b1-3)Gal(b1-4)[Fuc(a1-3)]GlcNAc
Outline: as §1

[8] = molecular target: Neu5Ac(a2-3)Gal(b1-4)[Fuc(a1-3)]GlcNAc6S
Outline: as §1

[9] = molecular target: Neu5Ac(a2-3)Gal6S(b1-4)GlcNAc
Outline: as §1

[10] = molecular target: Neu5Ac(a2-3)Gal6S(b1-4)[Fuc(a1-3)]GlcNAc
Outline: as §1

[11] = molecular target: Neu5Ac(a2-3)GalNAc
Outline: as §1

[12] = molecular target: Neu5Ac(a2-3)GalNAc(b1-4)GlcNAc
Outline: as §1

[13] = molecular target: Neu5Ac(a2-3)[GalNAc(b1-4)]Gal(b1-4)Glc
Outline: as §1

[14] = molecular target: Neu5Ac(a2-3)[GalNAc(b1-4)]Gal(b1-4)GlcNAc
Outline: as §1

[15] = molecular target: Neu5Ac(a2-3)[Neu5Ac(a2-6)]GalNAc
Outline: as §1

[16] = molecular target: Neu5Ac(a2-6)Gal(b1-4)GlcNAc
Outline: as §1

[17] = molecular target: Neu5Ac(a2-6)Gal(b1-4)GlcNAc(b1-2)Man(a1-3)[Neu5Ac(a2-6)Gal(b1-4)GlcNAc(b1-2)Man(a1-6)]Man(b1-4)GlcNAc(b1-4)GlcNAc
Outline: as §1

[18] = molecular target: Neu5Ac(a2-6)Gal(b1-4)GlcNAc(b1-3)Gal(b1-4)GlcNAc
Outline: as §1

[19] = molecular target: Neu5Ac(a2-6)Gal(b1-4)GlcNAc(b1-3)Gal(b1-4)[Fuc(a1-3)]GlcNAc(b1-3)Gal(b1-4)[Fuc(a1-3)]GlcNAc
Outline: as §1

[20] = molecular target: Neu5Ac(a2-6)Gal(b1-4)GlcNAc6S
Outline: as §1

[21] = molecular target: Neu5Ac(a2-6)GalNAc
Outline: as §1

[22] = molecular target: Neu5Ac(a2-6)GalNAc(b1-4)GlcNAc
Outline: as §1

[23] = molecular target: Neu5Ac(a2-8)Neu5Ac
Outline: as §1

[24] = molecular target: Neu5Ac(a2-8)Neu5Ac(a2-3)Gal(b1-4)Glc
Outline: as §1

[25] = molecular target: Neu5Ac(a2-8)Neu5Ac(a2-3)[GalNAc(b1-4)]Gal(b1-4)Glc
Outline: as §1

[26] = molecular target: Neu5Ac(a2-8)Neu5Ac(a2-8)Neu5Ac
Outline: as §1

[27] = molecular target: Neu5Ac(a2-8)Neu5Ac(a2-8)Neu5Ac(a2-3)Gal(b1-4)Glc
Outline: as §1

[28] = molecular target: Neu5Ac(a2-8)Neu5Ac(a2-8)Neu5Ac(a2-3)[GalNAc(b1-4)]Gal(b1-4)Glc
Outline: as §1

[29] = molecular target: Neu5Ac(a2-8)Neu5Ac(a2-8)Neu5Ac(a2-8)Neu5Ac(a2-3)[GalNAc(b1-4)]Gal(b1-4)Glc
Outline: as §1

[30] = molecular target: Neu5Ac9Ac(a2-6)Gal(b1-4)GlcNAc
Outline: as §1

[31] = molecular target: Neu5Gc(a2-3)Gal(b1-3)GlcNAc
Outline: as §1

[32] = molecular target: Neu5Gc(a2-3)Gal(b1-3)[Fuc(a1-4)]GlcNAc
Outline: as §1

[33] = molecular target: Neu5Gc(a2-3)Gal(b1-4)Glc
Outline: as §1

[34] = molecular target: Neu5Gc(a2-3)Gal(b1-4)GlcNAc
Outline: as §1

[35] = molecular target: Neu5Gc(a2-3)Gal(b1-4)[Fuc(a1-4)]GlcNAc
Outline: as §1

[36] = molecular target: Neu5Gc(a2-6)Gal(b1-4)GlcNAc
Outline: as §1

[37] = molecular target: Neu5Gc(a2-6)GalNAc
Outline: as §1

B1: PEB3 Cj0289c (Campylobacter jejuni), Q9PIK7 (protein)
chain: MDVNLYGPGGPHTALKDIANKYSEKTGVKVNVNFGPQATWFEKAKKDADILFGASDQSALAIASDFGKDFNVSKIKPLYFREAIILTQKGNPLKIKGLKDLANKKVRIVVPEGAGKSNTSGTGVWEDMIGRTQDIKTIQNFRNNIVAFVPNSGSARKLFAQDQADAWITWIDWSKSNPDIGTAVAIEKDLVVYRTFNVIAKEGASKETQDFIAYLSSKEAKEIFKKYGWRE
- glycan array binding signal (z-score) [1]: -0.421
- glycan array binding signal (z-score) [2]: -0.465
- glycan array binding signal (z-score) [3]: -0.217
- glycan array binding signal (z-score) [4]: -0.392
- glycan array binding signal (z-score) [5]: -0.473
- glycan array binding signal (z-score) [6]: -0.012
- glycan array binding signal (z-score) [7]: -0.39
- glycan array binding signal (z-score) [8]: -0.251
- glycan array binding signal (z-score) [9]: -0.159
- glycan array binding signal (z-score) [10]: -0.472
- glycan array binding signal (z-score) [11]: -0.456
- glycan array binding signal (z-score) [12]: -0.062
- glycan array binding signal (z-score) [13]: -0.413
- glycan array binding signal (z-score) [14]: -0.332
- glycan array binding signal (z-score) [15]: -0.222
- glycan array binding signal (z-score) [16]: -0.267
- glycan array binding signal (z-score) [17]: -0.298
- glycan array binding signal (z-score) [18]: -0.386
- glycan array binding signal (z-score) [19]: -0.373
- glycan array binding signal (z-score) [20]: -0.182
- glycan array binding signal (z-score) [21]: -0.27
- glycan array binding signal (z-score) [22]: -0.513
- glycan array binding signal (z-score) [23]: -0.303
- glycan array binding signal (z-score) [24]: -0.434
- glycan array binding signal (z-score) [25]: -0.28
- glycan array binding signal (z-score) [26]: -0.49
- glycan array binding signal (z-score) [27]: -0.456
- glycan array binding signal (z-score) [28]: -0.373
- glycan array binding signal (z-score) [29]: -0.443
- glycan array binding signal (z-score) [30]: -0.081
- glycan array binding signal (z-score) [31]: -0.419
- glycan array binding signal (z-score) [32]: -0.34
- glycan array binding signal (z-score) [33]: -0.407
- glycan array binding signal (z-score) [34]: -0.272
- glycan array binding signal (z-score) [35]: -0.328
- glycan array binding signal (z-score) [36]: -0.317
- glycan array binding signal (z-score) [37]: -0.401
